41 compounds from ChEMBL document CHEMBL4888484, “Replenishing the malaria drug discovery pipeline: Screening and hit evaluation of the MMV Hit Generation Library 1 (HGL1) against asexual blood stage Plasmodium falciparum ,using a nano luciferase reporter read-out” (2022) can be followed below.

About 540 (0.36%) of roughly 150,000 compounds showed an effect of 50% or more. The list shows a part of the results.

The test system of this test is Plasmodium falciparum. The test is described as follows: Primary screen in NF54 nanoGlo assay, in single point, at 2uM, 72h; a lower Z score goes with more inhibition. In kind it is functional, Erythrocyte. Particulars: timepoint 72 hour.
As to `CN(Cc1ccc2c(c1)OCO2)C(=O)c1cccnc1N(C)C`, the “% Inhibition” value is -5% and the Z score is 0.85.
The corresponding values for `COc1cc(C)nc(N2CC(OC)(c3ccnn3C)C2)n1` are 6% and -1.1.
On the same counts, the results for `Cn1nccc1CN(CCNC(=O)OC(C)(C)C)C[C@H](O)CO` are -9% and 1.17.
For the compound `Cc1cccc(NC(=O)N[C@@H](C)c2nnc(C(F)(F)F)[nH]2)n1`, the “% Inhibition” value is reported as -3% and the Z score was determined as 0.47.
For `O=C(NCc1csc(=O)[nH]1)c1ccc2cc[nH]c2n1`, the “% Inhibition” value was -3% and the Z score stood at 0.65.
On the same counts, the results for `CC(C)c1nccc(C(=O)NCc2nnc(N)s2)n1` are 5% and -0.42.
As to `C[C@@H](C(=O)NCc1ccc2c(c1)OCO2)N1CCn2ccnc2C1`, the “% Inhibition” value is reported as -3% and the Z score is 0.63.
The corresponding values for `COc1cc([C@H](C)NC2(C(C)C)CC2)ccc1S(C)(=O)=O` are 18% and -2.26.
With `CCCN1CCC(N[C@H]2C[C@@H](C(=O)NCCc3ccc4c(c3)OCO4)N(Cc3cccc(Cl)c3)C2)CC1`, the “% Inhibition” value turned out to be 2% and the Z score is -0.32.
The corresponding values for `CO[C@@]12CC[C@@H](O)C[C@@H]1N(C(=O)c1cn(C)c3ccc(C)cc3c1=O)CC2` are -10% and 1.84.
The corresponding values for `CC[C@H]1CCCCN1C(=O)Cn1c(=O)n(CC2CCC(C(=O)NC3CCCC3)CC2)c(=O)c2ccccc21` (some centres not stated) are -16% and 2.53.
Consider `Cc1nc(CCOC(=O)C[C@@H](CN)CC(C)C)cs1`, for which the “% Inhibition” value was -4% and the Z score is recorded as 0.76.
Turning to `N#Cc1ccc(N2CCCC(N3CCOC(c4cccc(O)c4)C3)C2=O)cc1` (configuration not stated), the “% Inhibition” value is on record as -2% and the Z score was 0.38.
Take `Cc1ccc(C(=O)NCC2CCN(C(=O)c3[nH]cnc3C)CC2)cn1`: the “% Inhibition” value is listed as -10% and the Z score came out at 1.41.
On to `COc1ccc(C[C@H](C)Nc2ccc3c(c2)CCC(=O)N3CC2CC2)cc1OC`, for which the “% Inhibition” value is given as -8% and the Z score is 0.98.
In the case of `CC(=O)N1CCC(CN2CCn3cc(C(=O)NCCc4cccnc4)nc3[C@H]2c2ccccc2)CC1`, the “% Inhibition” value was -7% and the Z score was found to be 0.98.
On the same counts, the results for `O=C(O)c1cnc(C=Cc2cnc(C3CCC3)s2)s1` are -5% and 0.5.
`COCC(=O)NCCCn1c(-c2ccc(C)cc2)nc2cccnc21`: the “% Inhibition” value is given as -1% and the Z score came out at 0.13.
The corresponding values for `N#Cc1cccc(Oc2cncc(C(N)=O)c2)n1` are -13% and 1.89.
Consider `CCOC(=O)CCC(=O)Nc1ccc(N2CCC(C(=O)OCC)CC2)c(S(=O)(=O)N[C@H]2CCCc3ccccc32)c1`, for which the “% Inhibition” value is on record as 9% and the Z score is reported as -1.22.
On the same counts, the results for `CCc1ccccc1-c1noc(C2(C#N)CCCC2)n1` are -11% and 1.39.
The corresponding values for `CN(C)C(=O)/C(=C/c1cccc(Oc2ccccc2)c1)NC(=O)c1ccccc1` are -11% and 1.42.
Take `Cc1c(C(=O)O[C@@H](C)c2cscn2)cnn1C(C)C`: the “% Inhibition” value is on record as -1% and the Z score is on record as 0.23.
On the same counts, the results for `CN1CCC=C(CN(Cc2ccc3c(c2)OCO3)C(=O)N2CCCCC2)C1` are -3% and 0.46.
The corresponding values for `Cc1nc(C)c(C(=O)N(C2CC2)[C@@H](C)c2cccc(C(F)(F)F)c2)s1` are 0% and 0.01.
For `CN(C(=O)[C@@H]1CCCCC(=O)N1)c1cnn(C)c1`, the “% Inhibition” value is -18% and the Z score is reported as 2.07.
The corresponding values for `CC(C)CCC(=O)N1CC[S@+]([O-])C(C)(C)C1` are -8% and 1.08.
Turning to `COC[C@H](C)N(C)C(=O)Nc1nncs1`, the “% Inhibition” value is reported as -6% and the Z score stood at 1.18.
The corresponding values for `CC(C)C[C@H]1C(=O)NC(c2cn3cccc(F)c3n2)N1C` (some centres not stated) are 10% and -1.05.
The corresponding values for `CC(C)(C)OC(=O)NC[C@@H](C(=O)N1CCC1)c1ccccc1` are -10% and 1.64.
On the same counts, the results for `CCN(Cc1cnn(C)c1)Cc1nc(C(F)(F)F)cs1` are 3% and -0.5.
For the compound `CCCN1C(=O)N[C@@H](CC(=O)N2CCC(CCOC)CC2)C1=O`, the “% Inhibition” value was -11% and the Z score is on record as 1.36.
Turning to `NC(=O)Nc1ccccc1Br`, the “% Inhibition” value is -7% and the Z score worked out at 0.94.
For `Cc1cc(C(=O)CN2C(=O)CCC2=O)c(C)n1-c1cccc(Cl)c1`, the “% Inhibition” value came to 10% and the Z score is -1.79.
Turning to `CCCCN(C)CCNC(=O)c1noc2c1COc1ccccc1-2`, the “% Inhibition” value is reported as -10% and the Z score stood at 1.91.
As for `CC(C)(C)OCc1cccc(NC(=O)N2CCn3c(n[nH]c3=O)C2)c1`, the “% Inhibition” value is listed as -10% and the Z score turned out to be 1.
The corresponding values for `Cc1cc(F)ccc1[C@@H]1CCCN1S(=O)(=O)CC1(C#N)CCCC1` are 26% and -2.93.
Take `Cc1nc(COc2cccc3c2OCCO3)oc1C`: the “% Inhibition” value was -4% and the Z score was 0.5.
The corresponding values for `Cc1nc(Cc2nc(-c3ccc(NC(=O)C(C)(C)C)cc3)cs2)cs1` are -13% and 2.52.
On the same counts, the results for `CC(=O)N1CCC(C(=O)Nc2ccc(-c3cc[nH]n3)cc2)CC1` are -11% and 1.63.
The corresponding values for `Cc1noc(C2CC2)c1C(=O)N1CCCC[C@@]12CCOC2` are 1% and -0.1.
